# According to PubChem BioAssay AID1159614 (National Center for Advancing Translational Sciences (NCATS), 2016):
# Among all 45,000 compounds or so, about 65 (0.1%) were called active. The call rests on the fitted dose curve; in most records, active means well fitted activation curve with a large enough effect; inconclusive means small, poorly fitted or top-dose-only effect; inactive means no such curve, though single readings can be large or run the other way. This is one part of the list.
# Target: Galactocerebrosidase (Homo sapiens) (UniProt P54803)
# UniProt P54803, sequence (P54803 whole entry, looked up): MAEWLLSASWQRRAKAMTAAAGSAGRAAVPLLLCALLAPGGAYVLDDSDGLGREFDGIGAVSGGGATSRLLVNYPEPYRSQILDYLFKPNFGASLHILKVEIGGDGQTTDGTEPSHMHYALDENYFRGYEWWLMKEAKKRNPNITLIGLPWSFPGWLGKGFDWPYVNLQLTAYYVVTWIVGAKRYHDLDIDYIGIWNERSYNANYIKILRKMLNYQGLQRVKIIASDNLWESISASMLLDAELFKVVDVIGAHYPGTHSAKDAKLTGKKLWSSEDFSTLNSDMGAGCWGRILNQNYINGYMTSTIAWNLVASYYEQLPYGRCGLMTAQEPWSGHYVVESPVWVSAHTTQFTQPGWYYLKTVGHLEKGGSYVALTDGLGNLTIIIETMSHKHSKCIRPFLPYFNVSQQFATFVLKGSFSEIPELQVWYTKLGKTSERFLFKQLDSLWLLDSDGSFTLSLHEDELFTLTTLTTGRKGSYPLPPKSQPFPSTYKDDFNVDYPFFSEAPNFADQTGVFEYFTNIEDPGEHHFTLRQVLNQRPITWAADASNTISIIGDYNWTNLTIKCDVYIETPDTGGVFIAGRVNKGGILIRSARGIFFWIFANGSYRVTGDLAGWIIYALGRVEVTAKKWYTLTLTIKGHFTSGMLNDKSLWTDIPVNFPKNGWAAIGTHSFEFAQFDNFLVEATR
# Experiment: A Novel Cell-Based Assay to Identify Small Molecules for B -Galactocerebrosidase; further: nearly all actives have a fitted effect of over 65% in size; on activation: 0% is about no effect
# Settings: 145M-Twi-hGALC-G270D cells, HMU-beta-Gal fluorescence, 48 h; series mostly up to 57.5 µM; activation: at the top concentration
# Summary of the method: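 qHTS, 1536-well; 145M-Twi-hGALC-G270D cells (WT line also made) in DMEM/F12 + 10% FBS; compound incubation on live cells; HMU-β-gal 0.1 mM final, pH 5.2, NaTC; carbonate stop; fluorescence increase = enhanced residual activity.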
# Potency means the concentration at half of the fitted maximal effect.
SMILES,activation,Potency
CCOc1ccc(-n2c(=O)c3c(C)c(C)sc3n(CC(=O)N(CC)Cc3ccccc3)c2=O)cc1,inactive: -10%,
Cc1cccc(NC(=O)C2CCC(CNS(=O)(=O)c3ccc(Br)s3)CC2)c1 (stereo not given),inactive: -15.3%,
Cc1ccc(C)c(C(=O)c2c(N)c(-c3nc(-c4ccc5c(c4)OCO5)cs3)c3ccccn23)c1,inactive: -5.98%,
COc1cccc(C2CC(=O)N(c3ccc(F)cc3)C3=C2C(=O)OC3)c1OC (stereo not given),inactive: -12.8%,
Cc1ccc(OCC(=O)Nc2ccc(Cl)c(-c3nc4ncccc4o3)c2)c(C)c1,inactive: -16.6%,
CCCc1nn2c(=O)cc(COC(=O)c3ccccc3NC(=O)c3cccs3)nc2s1,inactive: -7.5%,
COC(=O)[C@@H]1[C@H]2C[C@H]3c4[nH]c5ccccc5c4CCN3C[C@@H]2CC[C@@H]1O,inactive: -8.92%,
COc1ccc(N(Cc2cccs2)C(=O)c2ccc(OCC(C)C)cc2)cc1,inactive: -14.4%,
COc1cc(C2c3c(oc4ccccc4c3=O)C(=O)N2c2ccccn2)cc(OC)c1OC (stereo not given),inactive: 3.49%,
Cc1ccc(NC(=O)C2CCCN(S(=O)(=O)c3cccc4cccnc34)C2)cc1 (stereo not given),inactive: 0.949%,
Cc1ccc(Cl)cc1NC(=O)c1oc2ccc(S(=O)(=O)N3CCCCC3)cc2c1C,inactive: -8.28%,
CCc1nonc1NC(=O)c1oc2ccc(Br)cc2c1C,inactive: 0.318%,
CCc1ccc(-n2c(=O)c3c4c(sc3n(CC(=O)N3CCC(C)CC3)c2=O)CCC4)cc1,inactive: -3.67%,
CC(=O)CSc1nnc2cc(C)c3cc(C)cc(C)c3n12,inactive: -1.85%,
Cc1nn(C(C)C(=O)N2CCN(c3ccc(Cl)cc3)CC2)c(=O)c2cc3occc3n12 (stereo not given),inactive: -5.43%,
CCOC(=O)c1ccc(NC(=O)CSc2cc(=O)n(CC)c3ccccc23)cc1,inactive: -5.73%,
Cc1ccc(Cl)cc1NC(=O)c1oc2ccc(S(=O)(=O)N(C)C3CCCCC3)cc2c1C,inactive: -13.9%,
Cc1ccc(S(=O)(=O)c2cn(Cc3cccc(C)c3)c3cc4c(cc3c2=O)OCO4)cc1,inactive: -13.9%,
CCOc1ccc(CN2C(=O)c3ccccc3Sc3ccc(C(=O)O)cc32)cc1,inactive: -2.76%,
O=C(NCCc1ccc(Cl)cc1)C(=O)NCC(c1ccco1)S(=O)(=O)c1ccc(Cl)cc1 (stereo not given),inactive: -10.7%,
Cc1ccc2c(c1)c(=O)c(C(=O)c1ccc3c(c1)OCO3)cn2Cc1ccc(Cl)cc1,inactive: 5.83%,
COc1cc(NC(=O)CCc2c(C)nc3cc(-c4ccccc4)nn3c2C)cc(OC)c1OC,inactive: -9.67%,
CCOc1ccc(CN(C(=O)c2cc(=O)c3cc(C)cc(C)c3o2)C2CCS(=O)(=O)C2)cc1 (stereo not given),inactive: -19.4%,
CCC(CC)C(=O)Nc1nnc(SCc2cc(=O)n3cccc(C)c3n2)s1,inactive: -20.9%,

SMILES,activation,Potency
CSc1ccc(/C=C/c2nc3ccccc3n2S(=O)(=O)c2cccc(Cl)c2)cc1,inactive: -14.8%,
CN(C(=O)CSc1nnc(-c2ccccc2F)o1)C1CCCCC1,inactive: 1.44%,
c1coc(-c2nc3n(n2)C2(CCCCC2)[C@@H]2CCCC[C@@H]2N3)c1,inactive: -13.4%,
Cc1oc2ncnc(N3CCCCC3)c2c1C(=O)N1CCN(c2cccc(Cl)c2)CC1,inactive: -18.7%,
CCCN1C(=O)C2(c3ccccc31)c1c(oc3ccc(F)cc3c1=O)C(=O)N2CCCOC(C)C (stereo not given),inactive: -6.49%,
O=C(Nc1cccc(F)c1)C1CCN(S(=O)(=O)c2cccc3nsnc23)CC1,inactive: -12.3%,
COc1ccc(CCNS(=O)(=O)c2cc(-c3cc(C)no3)ccc2C)cc1OC,inactive: -10.3%,
CCn1cc2nc(SCc3cccc(Cl)c3)n(Cc3ccc(C)cc3)c(=O)c2n1,inactive: -6.86%,
CC(C)c1cnc2c(c1SCC(=O)Nc1cccc(F)c1)c(=O)n(C)c(=O)n2C,inactive: -6.97%,
Cc1ccc(Cl)cc1Nc1nn2c(=O)c3ccc(C(=O)N4CCCC(C)C4)cc3nc2s1 (stereo not given),inactive: -10.3%,
CN(C)c1ccc(CNC(=O)CCn2cccn2)cc1,inactive: -9.22%,
CCc1ccc(CN2CCc3nc(N4CCN(CC)CC4)ncc3C2)cc1,inactive: 1.18%,
CCN(C(=O)CSc1nc(-c2ccc(C(C)C)cc2)no1)c1cccc(C)c1,inactive: 3.15%,
CCCCCCc1ccc(O)cc1O,inactive: -17.1%,
Cc1cccc(C(=O)Nc2nnc(S(=O)(=O)N(C)c3ccccc3C)s2)c1,inactive: -29.8%,
Cc1ccc(-n2c(-c3ccco3)nc3c(cnn3-c3ccccc3Cl)c2=O)cc1,inactive: 2.4%,
COc1ccc(OC)c(NS(=O)(=O)c2ccc(-c3cc(C)no3)s2)c1,inactive: -3.22%,
COc1ccc(CNC(=O)CCCn2nc(C)c3c(C)n(-c4ccccc4)nc3c2=O)cc1,inactive: -14.6%,
CCCN(CCC)S(=O)(=O)c1ccc(C(=O)Nc2sc3c(c2C(=O)OC)CCN(CC)C3)cc1,inactive: -22.1%,
CSc1ccc(C2c3c(oc4cc(C)cc(C)c4c3=O)C(=O)N2Cc2ccco2)cc1 (stereo not given),inactive: -10.9%,
Cc1ccc(CCNC(=O)c2ccc3c(c2)N(Cc2cccc(Cl)c2)C(=O)c2ccccc2S3(=O)=O)cc1,inactive: -17.8%,
O=C(Nc1cccc(C(F)(F)F)c1)C1CCCN1S(=O)(=O)c1cccc2nsnc12 (stereo not given),inactive: -6.91%,
c1ccc(CSc2nc3ncccc3[nH]2)cc1,inactive: -1.39%,
Cc1cc(C)cc(OC(C)C(=O)Nc2c(C(=O)c3ccccc3)oc3ccccc23)c1 (stereo not given),inactive: -0.815%,

SMILES,activation,Potency
CCN(CC)C(=O)Cn1c(=O)n(-c2ccc(Cl)cc2)c(=O)c2c3c(sc21)CCC3,inactive: -0.495%,
CCOC(=O)c1c(C)[nH]c(C)c1S(=O)(=O)N1CCN(c2cccc(C(F)(F)F)c2)CC1,,active: 1.12 µM
O=C1c2[nH]nc(-c3ccccc3O)c2C(c2cccc(OCc3ccccc3)c2)N1CCO (stereo not given),inactive: -13.3%,
COc1ccc(CCNC(=O)C(=O)NCC(c2cccs2)S(=O)(=O)c2ccc(C)cc2)cc1 (stereo not given),inactive: -9.83%,
COc1ccc(C(=O)COC(=O)C(Cc2c[nH]c3ccccc23)NC(=O)c2ccc(C(C)(C)C)cc2)cc1 (stereo not given),inactive: -17.5%,
COc1ccc(-n2nc(C)c3c(C(F)(F)F)cc(-c4cccnc4)nc32)cc1,inactive: -11.8%,
Cc1cn2c(=O)cc(COC(=O)c3cccc(NC(=O)c4ccccc4C)c3)nc2s1,inactive: 3.37%,
Cc1ccc(S(=O)(=O)N2CCC(C(=O)Nc3ccc(C)c(Cl)c3)CC2)cc1,inactive: -25.6%,
CC1(C)NC(=O)N(c2ccc([N+](=O)[O-])c(C(F)(F)F)c2)C1=O,inactive: -13.9%,
COc1cccc(N2CCN(C(=O)CCS(=O)(=O)c3ccc4c(c3)oc(=O)n4C)CC2)c1,inactive: -19.2%,
COCCCNC(=O)C1CCN(c2nc3ccc(C)cc3[nH]2)CC1,inactive: -6.12%,
CCOC(=O)c1cc(OC(=O)c2ccccc2C)n(-c2ccccc2)n1,inactive: -8.86%,
CC(=O)c1ccc(NC(=O)Cn2nc(N3CCN(c4ccccc4)CC3)ccc2=O)cc1,inactive: -12%,
COc1ccccc1OC(C)C(=O)Nc1cccc(-c2nc3ccccc3o2)c1 (stereo not given),inactive: -17%,
CC(=O)c1sc(N2C(=O)c3oc4ccccc4c(=O)c3C2c2ccc(C)cc2)nc1C (stereo not given),inactive: -18.8%,
CCC(Sc1nnc(C)n2c1cc1occc12)C(=O)Nc1ccccc1OC (stereo not given),inactive: -16.8%,
CCN(Cc1ccccc1)C(=O)c1cnn(-c2ccc(F)cc2)c1-n1cccc1,inactive: -12.3%,
CCCn1c2ccccc2c2nnc(SCC(=O)Nc3cccc(C(C)=O)c3)nc21,inactive: -18.4%,
Cc1ccc(NC(=O)c2cnn3c2NC(c2ccccc2)=CC3c2ccccc2)cc1 (stereo not given),inactive: 3.42%,
CC(C)c1nc2ccc(C(=O)Nc3ccccc3F)cc2o1,inactive: -11.4%,
O=C(NCc1cccnc1)c1nn(-c2ccc(F)cc2)nc1CO,inactive: 8.57%,
CCCSc1nc2c([nH]c3ccccc32)c(=O)n1C,inactive: -8.33%,
Cc1ccc(Cl)cc1N1CCN(S(=O)(=O)c2ccc3c(c2)CCN3C(=O)C2CCC2)CC1,inactive: -18.3%,
COc1ccccc1CNC(=O)CSC1=Nc2ccccc2N=C(c2ccc(F)cc2)C1,inactive: -2.93%,

SMILES,activation,Potency
CCc1ccc(NS(=O)(=O)c2ccc3[nH]cc(C(=O)NCCCOC(C)C)c(=O)c3c2)cc1,inactive: -7.02%,
CCOc1cc(CNC(=O)CN2CCSc3ccccc32)cc(OCC)c1OCC,inactive: -4.93%,
COc1cccc(NC(=O)Cn2c(=O)n(Cc3ccccc3)c(=O)c3ccccc32)c1,inactive: -13.1%,
Cc1ccc(N(CC(=O)Nc2ccc(Cl)cc2)S(=O)(=O)c2cccc3nonc23)cc1,inactive: -8.33%,
CCSc1nc2n(n1)C(c1ccc(C(=O)O)cc1)C(C(=O)Nc1ccccc1C)=C(C)N2 (stereo not given),inactive: -14.8%,
CN1C(C(=O)Nc2ccc(OC(F)(F)F)cc2)=CC(c2cccs2)=NS1(=O)=O,inactive: -8.08%,
COc1ccc(NC(=O)c2oc3ccccc3c2NC(=O)COc2ccc(C(C)C)cc2)c(OC)c1,inactive: -3.91%,
O=C(Nc1ccccc1Cl)c1sc2cccc(Cl)c2c1Cl,inactive: -8.95%,
Cc1ccc(-n2ncc(C(=O)N3CCCCC3)c2C2CCN(C(=O)OC(C)(C)C)CC2)c(C)c1,inactive: -4.71%,
COc1ccc(-n2c(=O)[nH]c3cc(C(=O)NCCc4ccccc4)ccc3c2=O)cc1OC,inactive: -13.6%,
CCCS(=O)(=O)c1nc(S(=O)(=O)c2ccc(C)cc2)c(NC)s1,inactive: -11.4%,
O=C(COc1ccccc1)Nc1ccc2nc(SCC(=O)N3CCOCC3)sc2c1,inactive: -2.1%,
CCOC(=O)c1c(NC(=O)c2ccc(OC)cc2)sc2c1CCCCC2,inactive: -23.3%,
Cc1ccc(NC(=O)Cc2coc3ccc(C(C)C)cc23)cc1Cl,inactive: -53.3%,
CN(C)c1ccc(CNC(=O)Cn2c(=O)oc3cc(S(=O)(=O)N4CCCCCC4)ccc32)cc1,inactive: -7.29%,
COc1ccc(N2CCN(CCCNC(=O)Nc3ccccc3)CC2)cc1,inactive: -15.8%,
O=C(CCC1N=C2c3ccccc3N=C(SCc3ccc(Cl)cc3)N2C1=O)N1CCN(c2ccccc2)CC1 (stereo not given),inactive: -11.4%,
Fc1ccc(-c2nc(Nc3cccc(C(F)(F)F)c3)nc3c2COc2ccccc2-3)cc1,inactive: -9.75%,
COc1ccc(-n2c(SCC(=O)NCc3ccc(C)cc3)nc3n[nH]c(C)c3c2=N)cc1,inactive: -3.74%,
COC(=O)c1sccc1S(=O)(=O)N(CC(=O)NCc1ccc(C)cc1)c1ccc(C)cc1,inactive: -14.8%,
Cc1ccc(CSc2nnc3[nH]c(=O)cc(-c4ccccc4)n23)cc1,inactive: -5.51%,
O=C(CSc1nnc(-c2ccc(F)cc2)o1)N1CCCc2ccccc21,inactive: -9.28%,
O=C(O)c1ccccc1-c1ccc(C(F)(F)F)cc1,inactive: -15%,
